Assay results from PMC4336329 (PLoS ONE, 2015).
Among all 310,000 compounds or so, about 2,200 (0.71%) showed an effect of 50% or more. The effect is printed as a negative number. Some of the results follow.

The molecules below were run against human ether-à-go-go-related gene (hERG) potassium channel (human, UniProt Q12809) (assay: primary screen, population patch clamp on CHO cells stably expressing hERG).
human ether-à-go-go-related gene (hERG) potassium channel, sequence (Q12809 whole entry, looked up): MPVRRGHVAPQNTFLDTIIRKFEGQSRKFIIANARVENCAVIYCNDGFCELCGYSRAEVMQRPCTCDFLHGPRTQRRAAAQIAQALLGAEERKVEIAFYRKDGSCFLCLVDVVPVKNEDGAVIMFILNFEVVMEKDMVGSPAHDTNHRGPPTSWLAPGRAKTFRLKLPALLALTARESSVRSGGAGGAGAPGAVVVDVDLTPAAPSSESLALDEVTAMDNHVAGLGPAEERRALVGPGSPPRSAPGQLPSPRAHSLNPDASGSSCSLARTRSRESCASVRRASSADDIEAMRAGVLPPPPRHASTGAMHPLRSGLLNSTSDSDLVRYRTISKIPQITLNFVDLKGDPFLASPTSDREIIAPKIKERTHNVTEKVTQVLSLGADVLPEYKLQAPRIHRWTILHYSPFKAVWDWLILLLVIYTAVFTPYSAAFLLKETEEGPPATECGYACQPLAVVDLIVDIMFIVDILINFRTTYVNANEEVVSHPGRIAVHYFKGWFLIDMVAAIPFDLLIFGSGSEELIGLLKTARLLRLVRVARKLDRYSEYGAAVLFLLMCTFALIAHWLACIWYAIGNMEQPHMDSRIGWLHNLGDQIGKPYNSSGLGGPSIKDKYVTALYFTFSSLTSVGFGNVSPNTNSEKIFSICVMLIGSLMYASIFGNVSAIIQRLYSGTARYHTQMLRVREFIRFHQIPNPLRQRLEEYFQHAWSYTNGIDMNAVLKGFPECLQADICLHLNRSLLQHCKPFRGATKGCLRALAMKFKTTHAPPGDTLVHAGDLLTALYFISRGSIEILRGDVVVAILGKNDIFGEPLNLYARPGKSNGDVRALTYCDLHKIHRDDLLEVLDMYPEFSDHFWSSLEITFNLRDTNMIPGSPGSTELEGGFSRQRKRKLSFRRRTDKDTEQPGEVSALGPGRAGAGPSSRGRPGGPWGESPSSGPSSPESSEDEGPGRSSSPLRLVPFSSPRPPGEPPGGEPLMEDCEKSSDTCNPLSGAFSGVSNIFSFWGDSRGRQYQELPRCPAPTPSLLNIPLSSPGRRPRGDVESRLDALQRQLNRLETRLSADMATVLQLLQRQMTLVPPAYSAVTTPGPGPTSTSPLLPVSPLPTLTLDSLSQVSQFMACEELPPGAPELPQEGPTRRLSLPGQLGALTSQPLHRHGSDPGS
For `C=CCc1c(C)c(C#N)c2nc3ccccc3n2c1N1CCCCC1`, the “hERG current change (%, negative = inhibition) at 1uM” value was 12.6%. `Cc1ccc(S(=O)(=O)Cn2nnnc2C(c2ccccn2)N2CCN(c3ccccc3)CC2)cc1` (stereo not shown) was tested, and the “hERG current change (%, negative = inhibition) at 1uM” value was 8.08%. In the case of `COc1cc(Oc2ccccc2)nc(N)n1`, the “hERG current change (%, negative = inhibition) at 1uM” value is reported as 8.73%. For `CC1CCCC(NC(=O)C2CCN(S(=O)(=O)N3CCCCC3)CC2)C1C` (stereo not shown), the “hERG current change (%, negative = inhibition) at 1uM” value was 6.1%. In the case of `FC(F)(F)c1cccc(NC(=S)Nc2cccc(NC(=S)Nc3cccc(C(F)(F)F)c3)n2)c1`, the “hERG current change (%, negative = inhibition) at 1uM” value is reported as 6.75%. With `COc1ccc(CCNC(=O)c2cccc(S(=O)(=O)N3CCc4ccccc4C3)c2)cc1` the “hERG current change (%, negative = inhibition) at 1uM” value was 8.51%. With `CS(=O)(=O)N1CCC(C(=O)N2CCc3ccccc3C2)CC1` the “hERG current change (%, negative = inhibition) at 1uM” value was 3.91%. `O=C(O)c1cc(-c2c[nH]c3ccccc23)nc2cc3ccccc3cc12` was tested, and the “hERG current change (%, negative = inhibition) at 1uM” value was 8.22%. In the case of `Cc1ccccc1/C=N/n1c(-c2ccccn2)n[nH]c1=S`, the “hERG current change (%, negative = inhibition) at 1uM” value is reported as 11.1%. `CSc1nnc([C@H](C)NC(=O)OC(C)(C)C)o1` was tested, and the “hERG current change (%, negative = inhibition) at 1uM” value was -2%. `O=C(CN1CCN(S(=O)(=O)c2ccccc2)CC1)Nc1ccccc1Cl` was tested, and the “hERG current change (%, negative = inhibition) at 1uM” value was 2.63%. For `CCOC(=O)c1c(NC(=O)CSc2nnc(C)s2)sc2c1CCC(C)C2` (stereo not shown), the “hERG current change (%, negative = inhibition) at 1uM” value was 14%. `COc1ccc(Oc2nc(C)cc(C)c2C#N)cc1` was tested, and the “hERG current change (%, negative = inhibition) at 1uM” value was 10.5%. In the case of `Nc1nonc1-n1nnc(C(=O)N/N=C/c2ccccc2Cl)c1CN1CCOCC1`, the “hERG current change (%, negative = inhibition) at 1uM” value is reported as -8.08%. `COC(=O)c1ccccc1NS(=O)(=O)c1ccc(NC(C)=O)cc1` was tested, and the “hERG current change (%, negative = inhibition) at 1uM” value was 9.56%. With `CCOC(=O)C1C(=O)C=C(c2ccc(OC)cc2)CC1c1ccco1` (stereo not shown) the “hERG current change (%, negative = inhibition) at 1uM” value was 6.46%. In the case of `Oc1nc(-c2ccc(Br)cc2)n2ccncc12`, the “hERG current change (%, negative = inhibition) at 1uM” value is reported as 6.78%. `O=c1[nH]c(CN2CCN(c3ncccn3)CC2)nc2c(Br)cc(Br)cc12` was tested, and the “hERG current change (%, negative = inhibition) at 1uM” value was 6.17%. For `O=C(O)c1cc2ncc(-c3[nH]ncc3[N+](=O)[O-])cn2n1`, the “hERG current change (%, negative = inhibition) at 1uM” value was 12%. In the case of `COc1cc(CNCCN(C)C)ccc1OCc1c(F)cccc1Cl.Cl`, the “hERG current change (%, negative = inhibition) at 1uM” value is reported as -13.4%. For `N#CC1=C(N)N2C(=C(C#N)C13CCN(Cc1ccccc1)CC3)Nc1ccccc12`, the “hERG current change (%, negative = inhibition) at 1uM” value was -11%. For `CS(=O)(=O)N(Cc1ccc(Cl)cc1)c1ccc(C(=O)NCc2ccccn2)cc1`, the “hERG current change (%, negative = inhibition) at 1uM” value was -0.436%. For `Cc1cc(C(C)(C)C)cc(S(=O)(=O)NCCc2ccncc2)c1C`, the “hERG current change (%, negative = inhibition) at 1uM” value was 10.3%. `Cc1cccc(NC(=O)CCS(=O)(=O)c2ccccc2)n1` was tested, and the “hERG current change (%, negative = inhibition) at 1uM” value was 10.6%. In the case of `CCN(CC(=O)NC1CCCC1)S(=O)(=O)c1ccc(Br)cc1`, the “hERG current change (%, negative = inhibition) at 1uM” value is reported as 14.2%.
